{"source": "PubChem BioAssay AID1745845", "about": "(National Center for Advancing Translational Sciences (NCATS), 2022)", "note": "Where “and” joins values, the source holds several entries; their conditions need not be identical. Equal entries are not always repeated. Among all 360,000 compounds or so, about 2,600 (0.72%) were called active. The shares of active, inactive and inconclusive entries below differ from those in the screen. Calls follow the shape of the dose curve; as a rule, active = well fitted inhibition curve with a large enough effect; inconclusive = small, poorly fitted or top-dose-only effect; inactive = no such curve, though single readings can be large or run the other way. Potencies of inconclusive entries are doubtful fits and often do not repeat. % is scaled to controls: 0 for no effect and ±100 for the full control effect; potency is read from the fitted curve at half-maximal effect; tags tell the direction and shape of the fitted curve.", "data": [{"assay": "Primary qHTS for Inhibitors of ATXN expression; also: nearly all actives have a fitted effect of over 55% in size", "conditions": "HEK-293 ATXN2-luciferase reporter, luminescence, 24 h; activity change, negative = inhibition: at 57 µM (top of the series)", "outline": "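qHTS (up to 57 uM final) was run with 24 h compound exposure of reporter cells at 37 °C. Each well was multiplexed: SteadyGlo luminescence measured ATXN2-luciferase expression after a fluorogenic Gly-Phe-AFC viability readout (25 uM final).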", "values": [{"molecule": "C#C[C@]1(O)CC[C@H]2[C@@H]3CCc4cc(OC)ccc4[C@H]3CC[C@@]21C", "Potency": "inactive"}, {"molecule": "CC(C)N1CCc2c(sc(NC(=O)c3ccc(S(=O)(=O)N4CCOCC4)cc3)c2C(N)=O)C1", "activity change, negative = inhibition": "inactive: -37.1%"}, {"molecule": "Cc1ccccc1CNC(=O)c1ccc(-n2c(C)cc3c2CCCC3)cc1", "Potency": "inconclusive: 39.8 µM [inhibitor, partial curve, poor fit]"}, {"molecule": "CO[C@H]1C=CC=C(C)C(=O)NC2=CC(=O)C(NCCN(C)C)=C(C[C@@H](C)C[C@H](OC)[C@@H](O)[C@@H](C)C=C(C)[C@@H]1OC(N)=O)C2=O", "Potency": "active: 0.0769 µM"}, {"molecule": "O=C(Nc1nc2ccc(F)cc2s1)C1CCN(S(=O)(=O)c2cc([N+](=O)[O-])ccc2Cl)CC1", "Potency": "inconclusive: 10 µM [inhibitor, partial curve]"}, {"molecule": "Cc1ccc(-n2cccn2)c(CN2CCCC(C(=O)c3sccc3C)C2)c1", "note": "(stereo not given)", "Potency": "inconclusive: 15 µM [inhibitor, partial curve, poor fit]"}, {"molecule": "CCCCCc1ccc(OCCC[n+]2ccccc2)c(CCCCC)c1", "Potency": "inconclusive: 13.4 µM [inhibitor, partial curve, poor fit]"}, {"molecule": "Cc1ccc(-c2c[n+](Cc3cccc(Cl)c3)c3n2CCC3)cc1", "Potency": "inconclusive: 15 µM [inhibitor, partial curve, poor fit]"}, {"molecule": "Cc1c(OCC(=O)NC2CC(C)(C)NC(C)(C)C2)ccc2c1oc(=O)c1ccccc12", "Potency": "active: 17.8 µM"}, {"molecule": "Cc1ccc(NCC(=O)N/N=C/c2ccc(-c3cccc(C(F)(F)F)c3)o2)cc1", "Potency": "inconclusive: 22.4 µM [inhibitor, single point]"}, {"molecule": "CC1=C(C)C(=O)C(CCCCC#CCCCC#CCO)=C(C)C1=O", "Potency": "inconclusive: 25.1 µM [inhibitor, partial curve] and inconclusive: 22.4 µM [inhibitor, partial curve]"}, {"molecule": "CCc1ccc(-n2c(C)nnc2SCc2nc(-c3ccc(OC)cc3)no2)cc1", "Potency": "inconclusive: 28.2 µM [inhibitor, single point]"}, {"molecule": "Cn1c(N)c(C(=O)COC(=O)c2ccc([N+](=O)[O-])o2)c(=O)n(C)c1=O", "activity change, negative = inhibition": "inactive: -16.6%"}, {"molecule": "CC1(Cc2ccc(F)cc2)C(=O)Nc2ccc(S(=O)(=O)NC3CCCCC3)cc21", "note": "(stereo not given)", "Potency": "inconclusive: 22.4 µM [inhibitor, partial curve, poor fit]"}, {"molecule": "CSc1ncnc2c1ncn2CCCNCc1ccco1", "activity change, negative = inhibition": "inactive: -8.18%"}, {"molecule": "C=CCn1c(C)cc(C2=NNC(=NCC)SC2)c1C", "Potency": "active: 0.447 µM"}, {"molecule": "O=C1N(Cc2cccc(Cl)c2)C[C@@H]2C[C@@H](c3cccn3-c3cccnc3)N3CCC[C@@]123", "Potency": "inconclusive: 17.8 µM [inhibitor, partial curve]"}, {"molecule": "CC(C)N(C(=O)[C@H]1C[C@H](CC(=O)NCC23CC4CC(CC(C4)C2)C3)C(=O)N2CCc3c([nH]c4ccc(Cl)cc34)[C@]12C)C(C)C", "Potency": "inconclusive: 39.8 µM [inhibitor, single point]"}, {"molecule": "COc1ccc(O)c(/C=C(\\C#N)C(=O)Nc2ccccn2)c1", "activity change, negative = inhibition": "inactive: 20.4%"}, {"molecule": "COc1cccc(C2=CC(=O)C[C@H](c3ccc(Cl)cc3)C2)c1OC", "Potency": "inconclusive: 25.1 µM [inhibitor, single point]"}, {"molecule": "CC1(C(=O)NCCc2c[nH]c3ccccc23)CCN1Cc1ccccc1OC(F)F", "note": "(stereo not given)", "Potency": "inconclusive: 39.8 µM [inhibitor, single point]"}, {"molecule": "CN1CCN(C(=O)C2=C[C@@H](c3ccc(C(F)(F)F)cc3)C[C@@H](OCc3ccc(CO)cc3)O2)CC1", "activity change, negative = inhibition": "inactive: -4.57%"}, {"molecule": "OC[C@@H]1CN(Cc2ccc(F)cc2)C[C@H](n2cnc3c(N4CCN(c5ccccc5)CC4)ncnc32)O1", "Potency": "inconclusive: 28.2 µM [inhibitor, single point]"}, {"molecule": "COc1ccc2occ(C(=O)c3coc4ccc(O)c(CN(C)C)c34)c2c1", "Potency": "inconclusive: 28.2 µM [inhibitor, partial curve, poor fit]"}, {"molecule": "C[C@]12c3[nH]c4ccc(Cl)cc4c3CCN1C(=O)[C@@H](CC(=O)NCc1cccc(C(F)(F)F)c1)C[C@@H]2C(=O)N1CCCCC1", "Potency": "inconclusive: 31.6 µM [inhibitor, single point]"}, {"molecule": "COc1ccc(-c2noc(N3CCC(C(=O)N4CCN(c5ccccc5F)CC4)CC3)n2)cc1", "activity change, negative = inhibition": "inactive: -0.356%"}, {"molecule": "CN(C(=O)C1CCC(CNS(=O)(=O)c2cccc3cccnc23)CC1)C1CCCCC1", "note": "(stereo not given)", "activity change, negative = inhibition": "inactive: -15.9%"}, {"molecule": "O=C(N/N=C/c1coc2ccccc2c1=O)c1cn(-c2ccccc2)nc1-c1ccc(F)cc1", "activity change, negative = inhibition": "inactive: -11%"}, {"molecule": "COc1cc2c(C(=O)N3CCN(c4cccc(C(F)(F)F)c4)CC3)cn(CC(C)C)c(=O)c2cc1OC", "Potency": "inconclusive: 28.2 µM [inhibitor, single point]"}, {"molecule": "CCCCCN(CCC12CC3CC(CC(C3)C1)C2)C(=O)NCCCc1ccncc1", "Potency": "inconclusive: 30.6 µM [inhibitor, single point]"}, {"molecule": "c1ccc(-n2nnnc2Sc2ncnc3sc4c(c23)CCCC4)cc1", "Potency": "inconclusive: 35.5 µM [inhibitor, single point]"}, {"molecule": "O=C1C=CC(=O)N1CCNc1ncc(C(F)(F)F)cc1Cl", "Potency": "active: 25.1 µM"}, {"molecule": "COc1ccc(-c2csc(NC(=O)c3ccccc3NS(=O)(=O)c3ccc(C)cc3)n2)cc1", "Potency": "inconclusive: 20 µM [inhibitor, partial curve]"}, {"molecule": "CCc1ccc(Nc2n[n+](-c3ccccc3)c(-c3ccc(N(CC)CC)cc3)s2)cc1", "Potency": "inconclusive: 39.8 µM [inhibitor, single point]"}, {"molecule": "Cc1nc(N2CCN(C)CC2)c2c(C)c(C(=O)Nc3ccc(C)c(F)c3)sc2n1", "Potency": "inconclusive: 20 µM [inhibitor, partial curve]"}, {"molecule": "CCCCN(C=O)c1c(CC)nc2c(OCc3ccc(C(F)(F)F)cc3)cccn12", "Potency": "inconclusive: 35.5 µM [inhibitor, single point]"}, {"molecule": "C=CCC[C@@H](Cc1ccc(F)cc1)C(=O)OC[C@@H](Cc1c[nH]c2ccccc12)NC(=O)[C@H](CC=C)CC(=O)NCCO", "Potency": "inconclusive: 39.8 µM [inhibitor, single point]"}, {"molecule": "CCN1C(=O)c2cccc3c(S(=O)(=O)Nc4ccccc4)ccc1c23", "activity change, negative = inhibition": "inactive: 74.7%"}, {"molecule": "C=CCn1c(=O)c2cnc(Nc3ccc(N4CCN(C)CC4)cc3)nc2n1-c1cccc(C(C)(C)O)n1", "Potency": "inconclusive: 0.385 µM [inhibitor, full curve]"}, {"molecule": "Cc1ccc(Cn2ccsc2=NC(=O)COC(=O)c2ccc(NC(=O)CC#N)cc2)cc1", "activity change, negative = inhibition": "inactive: -4.35%"}, {"molecule": "COc1cccc(C(=O)N2CCN(C3CCC(c4ccccc4)CC3)CC2)c1", "note": "(stereo not given)", "Potency": "inconclusive: 22.4 µM [inhibitor, partial curve, poor fit]"}, {"molecule": "CCOC(=O)C1(CCOc2ccccc2)CCN(Cc2cccn2-c2cccnc2)CC1", "Potency": "inconclusive: 10 µM [inhibitor, partial curve, poor fit]"}, {"molecule": "OCC1(CCc2ccccc2)CCCN(CCCc2ccccc2)C1", "note": "(stereo not given)", "activity change, negative = inhibition": "inactive: -16.2%"}, {"molecule": "OC(c1ccccc1)(c1ccccc1)C1CCN(CCCOc2ccccc2Cl)CC1", "Potency": "inconclusive: 39.8 µM [inhibitor, single point]"}, {"molecule": "Cc1ccc2nc(NC(=O)C3CCCN(S(=O)(=O)c4cccnc4)C3)sc2c1", "note": "(stereo not given)", "Potency": "inconclusive: 28.2 µM [inhibitor, single point]"}, {"molecule": "O=C(Nc1ccccc1)C1=C[C@@H](c2csc3ccccc23)C[C@@H](OCc2ccc(CO)cc2)O1", "Potency": "inconclusive: 11.2 µM [inhibitor, partial curve]"}, {"molecule": "CCc1ccc2c(c1)/C(=C/C(=O)c1cccs1)C(=O)N2", "Potency": "inconclusive: 25.1 µM [inhibitor, single point]"}, {"molecule": "CN(C)c1nc(NCc2ccccc2)nc(SCC(=O)Nc2ccc(Cl)c(Cl)c2)n1", "Potency": "inconclusive: 39.8 µM [inhibitor, single point]"}, {"molecule": "CC12CCC(=O)C=C1CCC1C2C(O)CC2(C)C(c3csc(N)n3)CCC12", "note": "(stereo not given)", "Potency": "inconclusive: 25.1 µM [inhibitor, single point]"}, {"molecule": "COc1ccc(Cn2c(C)cc3c(c2=O)C(c2cccs2)C(C#N)=C(N)O3)cc1OC", "note": "(stereo not given)", "Potency": "inconclusive: 7.08 µM [inhibitor, partial curve, poor fit]"}, {"molecule": "O=C(NCCCc1nc2ccccc2n1Cc1ccccc1Cl)c1ccco1", "Potency": "inconclusive: 39.8 µM [inhibitor, single point]"}, {"molecule": "CC(C)C(=O)Nc1ccc(C(=O)N/N=C/c2cc(Br)cc(Br)c2O)cc1", "Potency": "inconclusive: 8.44 µM [inhibitor, partial curve, poor fit]"}, {"molecule": "Cc1ccc2[nH]cc(C(c3ccccc3)c3ccc(C)s3)c2c1", "note": "(stereo not given)", "Potency": "inconclusive: 31.6 µM [inhibitor, single point]"}, {"molecule": "Cn1c(N)c(C(=O)COC(=O)c2ccc(-c3ccccc3)cc2)c(=O)n(C)c1=O", "Potency": "inconclusive: 28.2 µM [inhibitor, single point]"}, {"molecule": "COc1ccc(CCCc2nnc(SCC(=O)Nc3cccc(C)c3)o2)cc1", "Potency": "inconclusive: 28.2 µM [inhibitor, single point]"}, {"molecule": "COc1cc2c(=O)n(Cc3ccccc3Cl)c(=O)n(CC(=O)Nc3ccc(C)c(C)c3)c2cc1OC", "activity change, negative = inhibition": "inactive: -9.11%"}, {"molecule": "CC1CCC(NC(=O)c2ccc3c(c2)OCO3)CC1", "note": "(stereo not given)", "Potency": "inconclusive: 17.8 µM [inhibitor, partial curve]"}, {"molecule": "CC(=O)Nc1ccc(SC[C@H](C)CN2CC[C@H](C(C)(C)C)CCC2=O)cc1", "Potency": "inconclusive: 20 µM [inhibitor, partial curve, poor fit]"}, {"molecule": "COc1ccc(OC)c(-c2nnc3n2N=C(c2ccc(OC(F)F)c(OCC4CC4)c2)CS3)c1", "Potency": "inconclusive: 28.2 µM [inhibitor, single point]"}, {"molecule": "CC1CC(C)C[N+](=C2C=C(N3CCCC3)CC(C)(C)C2)C1", "note": "(stereo not given)", "Potency": "inconclusive: 2.67 µM [inhibitor, full curve, poor fit]"}]}]}
